The BET-seq Pho4 binding data (Le et al. 2018)
The other results are listed elsewhere or left out. These are noisy estimates, calculated here from bound and input reads.

These sequences were tested against T1, Pho4 (S. cerevisiae) (UniProt P07270) (assay: relative binding free energy (BET-seq); higher = weaker binding). Details: reference: library average.
T1 sequence: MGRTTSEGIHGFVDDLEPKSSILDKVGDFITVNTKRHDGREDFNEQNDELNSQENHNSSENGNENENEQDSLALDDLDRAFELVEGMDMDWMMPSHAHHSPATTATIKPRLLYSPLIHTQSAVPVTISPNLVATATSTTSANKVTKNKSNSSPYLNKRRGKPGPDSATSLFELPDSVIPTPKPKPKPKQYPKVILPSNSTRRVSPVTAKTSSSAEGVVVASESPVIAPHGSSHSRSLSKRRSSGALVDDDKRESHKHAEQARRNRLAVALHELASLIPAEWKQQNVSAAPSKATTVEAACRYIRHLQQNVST

Sequence	relative binding free energy [kcal/mol]
TGGCTCACGTGCTTTT	0.17
CATAACACGTGGTCGG	0.08
GAGGGCACGTGGCTGA	-0.08
GTTCGCACGTGAGGAG	0.18
AATTTCACGTGTACGG	0.31
GTAGTCACGTGCTGGG	0.07
GGTTGCACGTGACATT	0.28
GGGGTCACGTGACGTA	0.32
TAATACACGTGGTGGT	-0.13
GGTCTCACGTGAGCGT	0.24
GGATTCACGTGAGTTG	0.33
AGATTCACGTGGGGCT	0.24
AAGTACACGTGTCGGG	0.21
GACGGCACGTGGTGCG	-0.1
TCTGGCACGTGGATAA	0.04
ATCGTCACGTGAGGTT	0.28
GGGCGCACGTGTTTTT	0.06
TTTGGCACGTGACTGG	0.05
AGTTTCACGTGCGGCA	0.19
GAGCGCACGTGGGGGA	-0.23
CGTAGCACGTGTAGGC	0.03
ATGGTCACGTGTACTA	0.25
GGGATCACGTGGCGTA	-0.04
CCGGTCACGTGGATGG	0.25
GGATGCACGTGTCGAG	0.03

Sequence	relative binding free energy [kcal/mol]
AGAGTCACGTGGGGTG	-0.01
GATTTCACGTGGTGAT	0.4
ATTGACACGTGGGGAT	-0.17
GGGACCACGTGGGTTA	-0.12
TCTTTCACGTGGCATG	0.22
GGGTGCACGTGCGATG	0.07
GGTGTCACGTGACGAG	0.15
TTTGTCACGTGTCGAG	0.2
GAGGGCACGTGTGTCA	-0.05
TATGCCACGTGATTGT	-0.02
AAGGTCACGTGCGGGG	0
CAGGGCACGTGAGGCG	0.03
TGTGTCACGTGGCTGC	0.01
GGCCTCACGTGGGGTG	-0.07
ACTATCACGTGTTTGA	0.15
CAGGGCACGTGGATAG	-0.11
AGTGACACGTGCGTTA	-0.1
TAGTTCACGTGGGAGC	0.19
GGTTTCACGTGGACAG	0.37
GTTGACACGTGGTAAA	-0.01
GTTTTCACGTGGTGCC	0.39
TTCGGCACGTGCTGTG	-0.03
TGGGTCACGTGTGTGA	0.14
TGGCACACGTGGGTCG	-0.08
TGCGGCACGTGCTTTT	-0.12

Sequence	relative binding free energy [kcal/mol]
TGAGCCACGTGTAAGG	0.09
TCTGTCACGTGGTGTC	0.01
TCGGTCACGTGAGTTT	0.19
TGCCTCACGTGGGATG	0.05
TCGGGCACGTGTGAGA	0.1
GGCAGCACGTGGCGTG	-0.05
GGTCTCACGTGTTTGT	0.17
ATAAACACGTGTCGGG	0.05
ACTTGCACGTGTAGGT	0.01
GGTGCCACGTGATATT	0.17
GGGGGCACGTGGCAGG	-0.15
GGGGTCACGTGTGAGT	0.19
AGTAGCACGTGGATGT	-0.09
TAGTACACGTGGTTTC	0.09
GGTAGCACGTGTAAGG	0.04
GATTGCACGTGGTCTG	-0.08
TTGTACACGTGCTGTG	-0.01
TTGTGCACGTGCTGAT	-0.12
AGGGACACGTGGGTCA	-0.11
TAGACCACGTGGGGGA	-0.21
AATAGCACGTGCTGGT	-0.19
AGGCGCACGTGTAGGA	-0.1
GCAATCACGTGGTGTA	0.13
TTGATCACGTGTGACT	0.27
TTAGGCACGTGCATGT	-0.17

Sequence	relative binding free energy [kcal/mol]
ATGGGCACGTGTTAAG	-0.08
AGATGCACGTGGTGGT	-0.15
ACAGTCACGTGTTTTT	0.09
AGGGTCACGTGTAGTC	0.15
TTAAACACGTGACAGG	0.28
GGGGCCACGTGCGGGT	-0.22
CTGTGCACGTGTTACG	0.07
TCGGTCACGTGCTGTT	0
GAACGCACGTGGGTGA	-0.14
CCTTTCACGTGGGGGA	0.08
AGCATCACGTGGGTGG	0.05
GCGAGCACGTGGGTAT	-0.16
CTGAACACGTGTGGGG	0.11
CTAGGCACGTGTGAGG	-0.03
CGGGGCACGTGTTATG	-0.02
CGTGGCACGTGATAAT	0.11
TTAATCACGTGAGGCT	0.43
ATGTTCACGTGTCGGG	0.26
GCTTGCACGTGGGAGT	-0.06
GTTTTCACGTGGCATA	0.08
TGAGTCACGTGACGTG	0.08
GATTACACGTGTAAGG	0.16
TAGGTCACGTGATGAG	0.16
AGTGACACGTGGGGTT	-0.09
GTCGCCACGTGTAGTT	0.15

Sequence	relative binding free energy [kcal/mol]
CGGGTCACGTGGCGGG	0.02
ATCAGCACGTGGGGCT	-0.13
TTTGTCACGTGATGAC	0.18
TTGCGCACGTGTGTCT	-0.18
GGGTCCACGTGTTGGA	0.11
TATGTCACGTGTGATC	0.24
GGTCGCACGTGGGGAT	-0.11
AGCTGCACGTGGTGGA	-0.22
TTGGTCACGTGCGTGT	0.06
GTAAACACGTGGTTAG	-0.08
ATTTGCACGTGACATG	-0.04
TTGCACACGTGCTGGT	0.03
TAAGGCACGTGGTATA	-0.36
GATAGCACGTGGACGG	0.1
TGGTGCACGTGAATTG	0.24
TTTTACACGTGCGGTT	0.08
GGGTGCACGTGGGCCA	-0.22
AGTTTCACGTGGAACA	0.44
TTAAACACGTGTTAGT	0.05
TGATGCACGTGTTGCT	-0.12
TTTTTCACGTGAATCG	0.29
AATAGCACGTGTGCTG	-0.08
AGACACACGTGTGTGG	-0.02
GGTGGCACGTGGGACT	-0.09
GAGAGCACGTGTTTTG	0.08

Sequence	relative binding free energy [kcal/mol]
TAAGGCACGTGGTGAC	-0.13
GGGGCCACGTGGGTAA	-0.11
TGTTTCACGTGGATGG	0.36
AGGGCCACGTGGTAGA	-0.15
TAAAACACGTGGTGTG	-0.11
TGTTGCACGTGCGGGC	-0.11
AGTCTCACGTGGGGTT	0.2
CTGTGCACGTGGGTTG	-0.08
GTGGGCACGTGAGTAC	0.24
CATGGCACGTGCAGGT	-0.2
GCGGTCACGTGCGGTG	0.13
GGCGGCACGTGGGATA	0.02
GTTGGCACGTGGTTTG	-0.06
AGTGTCACGTGAGCTT	0.31
ATTTTCACGTGACTTT	0.25
AAGGTCACGTGCGGTT	0.08
TTATTCACGTGTCCGG	0.18
TTAGGCACGTGGATAG	0.05
AATTGCACGTGGTGTT	-0.07
TCCGGCACGTGGGAGG	-0.24
GGTGTCACGTGGCTCA	0.17
